Results on two molecules are retold here after paper PMC5834211.

The target in assay [1] is T1, mDHX29 stably transfected in MEFs (mouse) (UniProt Q6PGC1).
T1 sequence: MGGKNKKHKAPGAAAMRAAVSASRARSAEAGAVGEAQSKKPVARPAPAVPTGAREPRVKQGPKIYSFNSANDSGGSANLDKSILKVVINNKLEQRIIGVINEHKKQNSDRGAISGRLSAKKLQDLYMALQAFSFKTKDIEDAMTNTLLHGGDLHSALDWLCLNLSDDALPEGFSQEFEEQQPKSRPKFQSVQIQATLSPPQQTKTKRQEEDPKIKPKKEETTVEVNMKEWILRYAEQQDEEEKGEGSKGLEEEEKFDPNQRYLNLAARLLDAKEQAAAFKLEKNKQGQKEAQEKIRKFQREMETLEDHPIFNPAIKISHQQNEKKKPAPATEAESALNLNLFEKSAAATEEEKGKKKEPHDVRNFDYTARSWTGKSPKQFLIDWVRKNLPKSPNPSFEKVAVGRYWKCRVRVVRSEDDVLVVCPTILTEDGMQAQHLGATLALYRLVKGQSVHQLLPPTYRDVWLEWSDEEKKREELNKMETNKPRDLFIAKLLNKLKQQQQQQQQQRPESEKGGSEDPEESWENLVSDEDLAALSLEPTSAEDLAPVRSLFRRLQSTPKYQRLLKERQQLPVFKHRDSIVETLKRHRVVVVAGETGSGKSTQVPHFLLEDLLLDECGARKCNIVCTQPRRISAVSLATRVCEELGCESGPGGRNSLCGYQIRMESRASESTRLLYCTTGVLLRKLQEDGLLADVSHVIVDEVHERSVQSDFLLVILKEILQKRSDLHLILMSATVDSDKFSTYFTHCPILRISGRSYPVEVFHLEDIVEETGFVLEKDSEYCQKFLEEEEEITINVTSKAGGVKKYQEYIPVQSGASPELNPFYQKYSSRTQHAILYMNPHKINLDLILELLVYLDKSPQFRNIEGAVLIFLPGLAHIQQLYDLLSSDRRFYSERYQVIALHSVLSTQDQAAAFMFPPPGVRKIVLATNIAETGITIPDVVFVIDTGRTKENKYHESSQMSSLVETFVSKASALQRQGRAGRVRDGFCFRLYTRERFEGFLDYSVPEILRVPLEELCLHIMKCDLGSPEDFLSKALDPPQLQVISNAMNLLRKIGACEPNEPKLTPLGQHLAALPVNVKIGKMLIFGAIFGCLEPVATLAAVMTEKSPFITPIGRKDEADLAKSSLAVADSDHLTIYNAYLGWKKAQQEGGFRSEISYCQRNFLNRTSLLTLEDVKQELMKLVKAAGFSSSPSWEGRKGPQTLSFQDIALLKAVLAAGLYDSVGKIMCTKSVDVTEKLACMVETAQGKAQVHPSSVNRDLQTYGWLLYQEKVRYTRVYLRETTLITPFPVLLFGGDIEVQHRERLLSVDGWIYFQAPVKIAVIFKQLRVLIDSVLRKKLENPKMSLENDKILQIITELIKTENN
The assay is described as follows: co-IP; DHX29 stably transfected (mDHX29) MEFs stimulated with HMW Poly(I:C) at the indicated time points; immunoprecipitation with anti-Flag beads, immunoblot with anti-MDA5.

Assay [2] concerns the target T2, Flag-MDA5 (full-length, FL-MDA5) (UniProt Q9BYX4).
T2 sequence: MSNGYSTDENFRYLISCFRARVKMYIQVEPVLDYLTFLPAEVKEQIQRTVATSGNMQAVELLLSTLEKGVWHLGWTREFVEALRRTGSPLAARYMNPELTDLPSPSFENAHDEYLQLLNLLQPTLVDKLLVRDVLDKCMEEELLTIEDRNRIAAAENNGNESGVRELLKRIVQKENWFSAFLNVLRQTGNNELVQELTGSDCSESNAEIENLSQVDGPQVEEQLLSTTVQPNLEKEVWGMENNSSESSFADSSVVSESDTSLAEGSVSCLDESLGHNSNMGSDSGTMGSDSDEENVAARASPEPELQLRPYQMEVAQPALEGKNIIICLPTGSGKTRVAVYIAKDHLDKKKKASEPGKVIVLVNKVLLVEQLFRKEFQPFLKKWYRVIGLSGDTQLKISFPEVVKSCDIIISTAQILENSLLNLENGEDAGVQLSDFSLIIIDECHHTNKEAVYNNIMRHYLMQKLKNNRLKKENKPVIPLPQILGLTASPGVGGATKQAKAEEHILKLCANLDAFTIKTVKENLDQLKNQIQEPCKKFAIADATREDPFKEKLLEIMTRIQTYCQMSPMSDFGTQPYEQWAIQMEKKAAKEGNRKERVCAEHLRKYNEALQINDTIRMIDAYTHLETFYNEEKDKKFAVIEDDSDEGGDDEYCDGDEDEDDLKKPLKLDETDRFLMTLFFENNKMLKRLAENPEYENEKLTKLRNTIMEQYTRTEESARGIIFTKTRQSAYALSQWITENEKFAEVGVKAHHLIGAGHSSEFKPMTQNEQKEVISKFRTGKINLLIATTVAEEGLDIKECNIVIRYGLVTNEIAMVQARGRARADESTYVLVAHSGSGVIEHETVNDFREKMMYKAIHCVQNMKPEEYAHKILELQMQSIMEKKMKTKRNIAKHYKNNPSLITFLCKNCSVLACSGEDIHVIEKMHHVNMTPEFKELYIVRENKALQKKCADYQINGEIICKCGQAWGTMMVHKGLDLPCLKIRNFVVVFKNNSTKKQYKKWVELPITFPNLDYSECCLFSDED
The assay is described as follows: co-IP; 293T cells cotransfected; whole cell lysates immunoprecipitated with anti-Flag beads, immunoblotted with anti-HA and anti-Flag (S5A, Fig 5I, S6A); in S5E with 20 ng Flag-MDA5 and intracellular HMW Poly(I:C) at the indicated time points. Background: In western blotting, separated proteins are transferred to a membrane and probed.

These are yes or no findings as the source states them, for the method shown. Binding seen in cells or lysates may run through a third protein. Some results given as binding are weak or reduced against the parent protein; the word gives no strength. For some assays here: Tags and fused reporters may be left off the sequences shown.

B1: endogenous MDA5 (MEFs) (protein, UniProt Q8R5F7 1-1025)
chain: MSIVCSAEDSFRNLILFFRPRLKMYIQVEPVLDHLIFLSAETKEQILKKINTCGNTSAAELLLSTLEQGQWPLGWTQMFVEALEHSGNPLAARYVKPTLTDLPSPSSETAHDECLHLLTLLQPTLVDKLLINDVLDTCFEKGLLTVEDRNRISAAGNSGNESGVRELLRRIVQKENWFSTFLDVLRQTGNDALFQELTGGGCPEDNTDLANSSHRDGPAANECLLPAVDESSLETEAWNVDDILPEASCTDSSVTTESDTSLAEGSVSCFDESLGHNSNMGRDSGTMGSDSDESVIQTKRVSPEPELQLRPYQMEVAQPALDGKNIIICLPTGSGKTRVAVYITKDHLDKKKQASESGKVIVLVNKVMLAEQLFRKEFNPYLKKWYRIIGLSGDTQLKISFPEVVKSYDVIISTAQILENSLLNLESGDDDGVQLSDFSLIIIDECHHTNKEAVYNNIMRRYLKQKLRNNDLKKQNKPAIPLPQILGLTASPGVGAAKKQSEAEKHILNICANLDAFTIKTVKENLGQLKHQIKEPCKKFVIADDTRENPFKEKLLEIMASIQTYCQKSPMSDFGTQHYEQWAIQMEKKAAKDGNRKDRVCAEHLRKYNEALQINDTIRMIDAYSHLETFYTDEKEKKFAVLNDSDKSDDEASSCNDQLKGDVKKSLKLDETDEFLMNLFFDNKKMLKKLAENPKYENEKLIKLRNTILEQFTRSEESSRGIIFTKTRQSTYALSQWIMENAKFAEVGVKAHHLIGAGHSSEVKPMTQTEQKEVISKFRTGEINLLIATTVAEEGLDIKECNIVIRYGLVTNEIAMVQARGRARADESTYVLVTSSGSGVTEREIVNDFREKMMYKAINRVQNMKPEEYAHKILELQVQSILEKKMKVKRSIAKQYNDNPSLITLLCKNCSMLVCSGENIHVIEKMHHVNMTPEFKGLYIVRENKALQKKFADYQTNGEIICKCGQAWGTMMVHKGLDLPCLKIRNFVVNFKNNSPKKQYKKWVELPIRFPDLDYSEYCLYSDED
Regarding B1, the binding entry in assay [1] was “binds”.

B2: HA-DHX29a [1-530 aa] (domain or fragment, UniProt Q7Z478 1-530)
chain: MGGKNKKHKAPAAAVVRAAVSASRAKSAEAGIAGEAQSKKPVSRPATAAAAAAGSREPRVKQGPKIYSFNSTNDSSGPANLDKSILKVVINNKLEQRIIGVINEHKKQNNDKGMISGRLTAKKLQDLYMALQAFSFKTKDIEDAMTNTLLYGGDLHSALDWLCLNLSDDALPEGFSQEFEEQQPKSRPKFQSPQIQATISPPLQPKTKTYEEDPKSKPKKEEKNMEVNMKEWILRYAEQQNEEEKNENSKSLEEEEKFDPNERYLHLAAKLLDAKEQAATFKLEKNKQGQKEAQEKIRKFQREMETLEDHPVFNPAMKISHQQNERKKPPVATEGESALNFNLFEKSAAATEEEKDKKKEPHDVRNFDYTARSWTGKSPKQFLIDWVRKNLPKSPNPSFEKVPVGRYWKCRVRVIKSEDDVLVVCPTILTEDGMQAQHLGATLALYRLVKGQSVHQLLPPTYRDVWLEWSDAEKKREELNKMETNKPRDLFIAKLLNKLKQQQQQQQQHSENKRENSEDPEESWENLVSD
As for B2, the binding result in assay [2] is “binds”.
